Two substances from PMC12090624 can be followed below.

Chains of the proteins cited; added tags and fusions are not shown.
UniProt P15311: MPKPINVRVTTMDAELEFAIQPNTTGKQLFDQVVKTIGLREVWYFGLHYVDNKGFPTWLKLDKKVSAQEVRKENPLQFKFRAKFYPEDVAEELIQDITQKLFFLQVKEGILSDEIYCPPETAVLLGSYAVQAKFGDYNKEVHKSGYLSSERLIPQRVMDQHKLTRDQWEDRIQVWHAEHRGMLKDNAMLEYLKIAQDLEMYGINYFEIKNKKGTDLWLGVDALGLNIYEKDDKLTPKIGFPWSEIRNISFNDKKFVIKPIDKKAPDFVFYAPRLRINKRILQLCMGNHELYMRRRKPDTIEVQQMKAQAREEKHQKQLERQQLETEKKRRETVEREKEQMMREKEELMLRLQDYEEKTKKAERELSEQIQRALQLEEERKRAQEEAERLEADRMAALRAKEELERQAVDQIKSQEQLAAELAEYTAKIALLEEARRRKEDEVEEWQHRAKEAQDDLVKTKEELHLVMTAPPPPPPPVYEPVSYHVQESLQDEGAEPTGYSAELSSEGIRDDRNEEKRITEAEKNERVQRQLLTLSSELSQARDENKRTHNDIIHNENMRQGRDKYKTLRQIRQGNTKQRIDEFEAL
UniProt Q96RT1: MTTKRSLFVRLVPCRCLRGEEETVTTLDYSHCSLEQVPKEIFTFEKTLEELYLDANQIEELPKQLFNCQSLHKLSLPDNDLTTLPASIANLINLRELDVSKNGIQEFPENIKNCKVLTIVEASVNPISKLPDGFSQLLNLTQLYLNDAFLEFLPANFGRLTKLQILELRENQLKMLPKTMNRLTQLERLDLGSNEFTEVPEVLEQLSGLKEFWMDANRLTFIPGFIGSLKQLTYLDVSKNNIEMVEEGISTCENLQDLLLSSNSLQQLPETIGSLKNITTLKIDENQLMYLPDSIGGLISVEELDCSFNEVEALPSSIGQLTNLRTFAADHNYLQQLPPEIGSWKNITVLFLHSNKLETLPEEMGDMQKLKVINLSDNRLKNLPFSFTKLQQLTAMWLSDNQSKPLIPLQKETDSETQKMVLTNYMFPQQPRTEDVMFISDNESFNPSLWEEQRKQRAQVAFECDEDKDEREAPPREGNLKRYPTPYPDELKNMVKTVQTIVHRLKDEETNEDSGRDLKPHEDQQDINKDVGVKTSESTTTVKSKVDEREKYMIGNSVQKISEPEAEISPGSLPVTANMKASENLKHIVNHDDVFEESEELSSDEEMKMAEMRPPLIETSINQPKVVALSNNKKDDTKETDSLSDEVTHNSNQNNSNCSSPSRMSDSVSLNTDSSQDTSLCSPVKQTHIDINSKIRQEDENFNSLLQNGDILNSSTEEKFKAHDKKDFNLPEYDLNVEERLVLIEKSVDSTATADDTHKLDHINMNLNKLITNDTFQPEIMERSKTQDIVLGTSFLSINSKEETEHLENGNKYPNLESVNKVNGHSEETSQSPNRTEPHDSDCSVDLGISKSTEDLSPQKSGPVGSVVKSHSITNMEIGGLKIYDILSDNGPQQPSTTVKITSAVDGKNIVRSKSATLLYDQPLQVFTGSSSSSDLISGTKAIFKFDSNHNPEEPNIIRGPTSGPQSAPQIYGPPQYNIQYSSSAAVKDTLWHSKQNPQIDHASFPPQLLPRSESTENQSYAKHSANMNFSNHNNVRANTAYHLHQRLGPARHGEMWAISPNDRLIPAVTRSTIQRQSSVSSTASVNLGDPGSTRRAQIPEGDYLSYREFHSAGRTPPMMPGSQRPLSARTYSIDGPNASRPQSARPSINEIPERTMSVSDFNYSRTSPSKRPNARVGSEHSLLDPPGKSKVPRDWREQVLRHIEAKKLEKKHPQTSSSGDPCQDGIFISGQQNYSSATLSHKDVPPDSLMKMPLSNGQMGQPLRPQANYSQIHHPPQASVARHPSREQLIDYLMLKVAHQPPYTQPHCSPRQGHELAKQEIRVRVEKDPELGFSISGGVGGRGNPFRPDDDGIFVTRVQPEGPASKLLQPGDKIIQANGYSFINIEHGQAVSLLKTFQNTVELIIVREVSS

Results are given in words; binding and its absence hold for the method and conditions named. In cells and extracts the contact can be indirect. Some binding calls cover weakened binding; strength is not graded here.

Assay [1] concerns the target Ezrin (human (endogenous in SKBR3 and MCF10A)) (UniProt P15311). The experiment in a line: condition: only in MCF10A cells, which do not express HER2; proximity ligation; Duolink PLA on fixed, permeabilised MCF10A cells (non-transformed, do not express HER2), endogenous proteins.
For assay [2], the target named is Erb-b2 receptor tyrosine kinase 2 (HER2) (human (endogenous in SKBR3)) (UniProt P04626). The experiment in a line: proximity ligation; Duolink PLA on fixed, permeabilised SKBR3 cells, endogenous proteins; control cells, Erbin knock-down, NHERF1 knock-down, NSC668394 (10 uM, 16 h), serum free or 100 ng/ml EGF.
The target in assay [3] is Ezrin (human (endogenous in SKBR3 and MCF10A)) (UniProt P15311). The description is as above.
The target in assay [4] is Erb-b2 receptor tyrosine kinase 2 (HER2) (human (endogenous in SKBR3)) (UniProt P04626). The experiment in a line: co-IP; extracts of SKBR3 cells (control and Erbin knock-down) in RIPA buffer, incubated overnight at 4 C with protein A/G beads and antibody to the endogenous bait (anti-HER2 or anti-HSP90) or control IgG; Western blot.

As for “Erbin (ErbB2 Interacting Protein) (from UniProt Q96RT1 1-1412)”, the binding result in assay [1] is on record as “no binding”; in assay [2], “binds”; in assay [3], “binds”; in assay [4] it was “binds”.

With Ezrin (from UniProt P15311 1-586), the binding result in assay [2] and in assay [4] was “binds” throughout.
